# Measurements reported in PubChem BioAssay AID1347417 (National Center for Advancing Translational Sciences (NCATS), 2020).
# Where “and” joins values, the source holds several entries; their conditions need not be identical. Equal values may be shown once. Screen size: about 120,000 compounds; about 5,300 (4.4%) were called active. Inconclusive results, whose numbers are uncertain, are shown with a selection of clear calls. Calls come from the whole dose curve; as a rule, active = well fitted inhibition curve with a large enough effect; inconclusive = small, poorly fitted or top-dose-only effect; inactive = no such curve, though single readings can be large or run the other way. Potencies beside an inconclusive call are fits to weak or partial responses and may not hold up.
# Assay: qHTS Primary assay for Inhibitors of Plasmodium falciparum Dd2 growth in vitro; note: nearly all actives have a fitted effect of over 65% in size;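 for activity, negative = inhibition: plate controls were DMSO vehicle for no effect and reference drug for full effect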
# Settings: P. falciparum Dd2 growth, SYBR Green, 72 h; activity, negative = inhibition: at 28.9 µM (top of the series) unless noted; series mostly up to 28.9 µM
# Outline: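 Readout: SYBR Green fluorescence, 485 nm excitation, 535 nm emission, after ~16 h lysis at 37C. Before that, Dd2-infected red cells (2.5% hematocrit) grew 72 h with compound, 29 uM top final concentration.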
# Potency is the fitted concentration of half-maximal effect; tags give direction and shape of the fitted curve.
SMILES,Potency,"activity, negative = inhibition"
O=C(NCc1nnc2ccccn12)[C@H]1CNC[C@H](C(=O)N2CCOCC2)C1,inactive,
CC1=C(C(=O)Nc2cccc(C(F)(F)F)c2)C2(CCCCC2)OC1=O,"inconclusive: 17.8 µM [inhibitor, single point]",
Cc1ccc(C(=O)N2CCC(n3nccc3NC(=O)C3CCOC3)CC2)cc1C (stereo unspecified),inactive,
CN(C)S(=O)(=O)c1ccc2c(c1)N(CC(=O)N1CCN(c3ccccc3F)CC1)CCS2,"inconclusive: 5.01 µM [inhibitor, partial curve, poor fit]",
Cn1cnc([S+](=O)([O-])N2CC(COc3ccccc3)C3(CN(c4ccccc4)C3)C2)c1 (stereo unspecified),inactive,
CCc1cccc(C)c1NC(=O)CN1C(=O)C2(SCC(=O)N2c2cc(C)cc(C)c2)c2ccccc21 (stereo unspecified),"inconclusive: 17.8 µM [inhibitor, single point]",
Cc1cccc(CNC(=O)CN2C(=O)CCCc3ccccc32)c1,inactive,
COc1ccc(CN2C[C@H](O)C[C@H]2c2nc(Cc3ccccc3)no2)cc1,"inconclusive: 10 µM [inhibitor, single point]",
Cc1ccc(Cl)cc1N1CCN(c2cc(C3CC(O)C3)ncn2)CC1 (stereo unspecified),"inconclusive: 20 µM [inhibitor, single point]",
O=C(c1cn2cc(Cl)ccc2n1)N1CCc2nc(-c3ccccc3)[nH]c2C1,"inconclusive: 5.62 µM [inhibitor, partial curve]",
O=C(Cn1c(=O)n(Cc2ccc(C(=O)NCc3ccccc3Cl)cc2)c(=O)c2ccccc21)Nc1ccc(F)c(Cl)c1,active: 10 µM,
O=C(Cn1c(-c2cccs2)cc2ccccc21)NCc1ccccc1Br,"inconclusive: 10 µM [inhibitor, single point]",
CC(C)n1nccc1S(=O)(=O)N[C@@H]1[C@@H](Cc2ccccc2)[C@H]2OCC[C@@H]12,"inconclusive: 14.1 µM [inhibitor, partial curve, poor fit]",
COc1cc(F)ccc1-c1cc(C(=O)NCc2cccnc2)c2c(c1)N(C)CCO2,"inconclusive: 31.6 µM [inhibitor, single point]",
COc1cccc(NC(=O)Cn2c(-c3cnccn3)nc(C)c(CCO)c2=O)c1,inactive,
COc1ccc(-c2ccc3c(N)c(C(=O)Nc4ccc(C)cc4C)sc3n2)cc1OC,"inconclusive: 10 µM [inhibitor, partial curve]",
COC(=O)c1cn([C@H]2CO[C@H]3[C@@H]2OC[C@@H]3NC(=O)c2ccc(N(C)C)cc2)nn1,inactive,
COc1ccc(S(=O)(=O)NCC(c2ccco2)N2CCN(c3ccccc3F)CC2)cc1OC (stereo unspecified),"inconclusive: 17.8 µM [inhibitor, single point]",
CN(CCO)CC1(O)CCCN(Cc2ccccc2F)C1=O (stereo unspecified),"inconclusive: 12.6 µM [inhibitor, partial curve, poor fit]",
COc1ccc(C(=O)NCCc2noc(-c3cccnc3)n2)cc1OC,"inconclusive: 3.55 µM [inhibitor, partial curve, poor fit]",
CCn1cc(C(=O)NCCCN2CCC(C)CC2)c(=O)c2cc(S(=O)(=O)N(C)C3CCCCC3)ccc21,"inconclusive: 3.55 µM [inhibitor, single point]",
Cn1nc(CN2CCOCC(CO)C2)c2c(Cl)cccc21 (stereo unspecified),inactive,

SMILES,Potency,"activity, negative = inhibition"
COc1ccc(CNC(=O)N2CCCCC2c2noc(COCC3CC3)n2)cc1 (stereo unspecified),inactive,
Cc1cc(C)c(/C=C/c2onc(C)c2S(=O)(=O)N2CCC(C(=O)NCC(C)c3ccccc3)CC2)c(C)c1 (stereo unspecified),"inconclusive: 10 µM [inhibitor, partial curve]",
CC1(C(=O)N2CCc3ccccc3C2)CCCCC(=O)N1 (stereo unspecified),inactive,
COc1ccc(F)cc1C(C(=O)O)N1CCCN(c2ncccn2)CC1 (stereo unspecified),inactive,
Cc1ccc(Cl)cc1NC(=O)c1cnn2c(C(F)F)cc(-c3ccccc3)nc12,inactive,
Cn1c([C@H]2CCN(C3CCOCC3)C2)nc2ccccc21,"inconclusive: 14.1 µM [inhibitor, partial curve, poor fit]",
COc1ccc(OC2CCN(C(C)=O)CC2)c(C(=O)NC(C)Cc2cccs2)c1 (stereo unspecified),"inconclusive: 17.8 µM [inhibitor, single point]",
NCC(=O)N1Cc2ccccc2CC2(CCN(CC3CCNC3)C2)C1 (stereo unspecified),inactive,
Cc1noc([C@@H]2CN(C(=O)COc3ccc(F)cc3)C[C@H]2CO)n1,inactive,
N#Cc1cccc(CN2CCCC(c3nc4ccc(F)cc4c(=O)[nH]3)C2)c1 (stereo unspecified),"inconclusive: 15.8 µM [inhibitor, partial curve, poor fit] and inconclusive: 4.47 µM [inhibitor, partial curve]",
CCc1cccc(NC(=O)C2CCCN2S(=O)(=O)c2ccc3c(c2)n(C)c(=O)c(=O)n3C)c1 (stereo unspecified),,inconclusive: -30.5% [inhibitor] [at 0.594 µM]
Cc1ccc(CNC(=O)[C@H]2CCC[C@H]2NC(=O)c2ccncc2)cc1C,inactive,
Cc1cn2nnc(C(=O)N3CCC(C(=O)Nc4cccc(C(C)C)c4)CC3)c2c(=O)[nH]1,"inconclusive: 17.8 µM [inhibitor, single point]",
COc1ccc(CN2CCn3c(nn(-c4ccc([N+](=O)[O-])cc4)c3=O)C2)cc1,"inconclusive: 3.98 µM [inhibitor, single point]",
O=[S+]1([O-])NC2(CCN(Cc3cccnc3)CC2)CNc2ccccc21,inactive,
Cc1c(Cl)cccc1-n1c(SCC(=O)NCc2ccccc2)nc2n[nH]c(C)c2c1=N,"inconclusive: 12.6 µM [inhibitor, single point]",
COc1ccc(NC(=O)CC2C(=O)N(c3ccc(OC)cc3)C(=O)N2C2CCCCC2)cc1 (stereo unspecified),inactive,
CCS(=O)(=O)NCc1cccnc1Oc1cccc(C(F)(F)F)c1,inactive,
O=C(Cc1ccc(F)cc1)Nc1ccc(-c2nnc3n2CCCC3)cc1,"inconclusive: 17.8 µM [inhibitor, single point]",
COC(=O)CNC(=O)c1cc(C(C)(C)C)c2cccn2n1,"inconclusive: 31.6 µM [inhibitor, single point]",
C=CCN(Cc1cccc(OC)c1)C(=O)c1ccccc1C#N,inactive,
OC1(CN2CCN(c3ccc(F)c(Cl)c3)CC2)CCCNC1 (stereo unspecified),active: 7.94 µM,

SMILES,Potency,"activity, negative = inhibition"
CCCc1noc(-c2ccn3c(CNC(=O)c4ccc(OC)cc4)nnc3c2)n1,"inconclusive: 0.158 µM [inhibitor, full curve, poor fit]",
CCOC(=O)c1ccc(Nc2nc(N)c3cc(OC)c(OC)cc3n2)cc1,active: 1.26 µM,
CCCOCc1cc(CN2CCN(c3cccc(Cl)c3)CC2)c(O)c2ncccc12,active: 3.16 µM,
CCc1nc(-c2c3n(c(=O)n(CC(=O)Nc4ccc(Cl)cc4)c2=O)CCCC3)no1,"inconclusive: 17.8 µM [inhibitor, single point]",
COc1ccc(Nc2cc(C(=O)NCCCN(C)c3ccccc3)c3ccccc3n2)c(OC)c1,"inconclusive: 10 µM [inhibitor, single point]",
Cc1ccc(C2Cn3nnc(C(=O)N4CCN(C(=O)COc5cccc(C)c5)CC4)c3CO2)cc1 (stereo unspecified),"inconclusive: 2.24 µM [inhibitor, partial curve, poor fit]",
Cn1c2c(c(=O)n(C)c1=O)C(c1cc(Br)ccc1F)CC(=O)N2 (stereo unspecified),"inconclusive: 0.0501 µM [inhibitor, full curve, poor fit]",
Cn1nccc1C(O)c1cc2n(n1)CCN(c1ncc(Cl)cn1)C2 (stereo unspecified),inactive,
Cc1oc2ncnc(N3CCCCC3)c2c1C(=O)Nc1cccc(Cl)c1C,"inconclusive: 8.91 µM [inhibitor, partial curve, poor fit]",
CCC1CCCCN1S(=O)(=O)c1ccc(NC(=O)c2nc(SC)ncc2Cl)cc1 (stereo unspecified),"inconclusive: 14.1 µM [inhibitor, partial curve, poor fit]",
Cc1ccc(-c2nnc(C3CN(C(=O)c4ccccc4F)CC34CCOCC4)o2)cc1 (stereo unspecified),"inconclusive: 11.2 µM [inhibitor, single point]",
COc1ccc(/C=C/C(=O)Nc2ccc3nc(N4CCC(C)CC4)cc(C)c3c2)cc1OC,"inconclusive: 3.55 µM [inhibitor, partial curve, poor fit]",
CCCC1c2nccn2CCCN1C(=O)c1c(C)noc1C (stereo unspecified),inactive,
CC(=O)Nc1nonc1-c1nnc(SCc2ccc(F)cc2Cl)n1C,inactive,
C#CCN(C)C(=O)[C@@H]1CCCN1[C@@H](C(=O)NC)c1ccccc1F,inactive,
O=C(c1cc2ccccc2[nH]1)N1CCCC2(C1)NC(=O)N(Cc1ccccc1)C2=O (stereo unspecified),"inconclusive: 1.58 µM [inhibitor, partial curve, poor fit]",
Cc1ccc(NC(=O)Cn2c(=O)n(-c3ccc(C)cc3)c(=O)c3ccc(C(=O)NCc4ccccc4Cl)cc32)cc1,"inconclusive: 0.891 µM [inhibitor, full curve]",
CSCC(=O)N1CC(CO)C2(CCNCC2)C1 (stereo unspecified),inactive,
COc1cc2c(cc1OCc1ccccc1)N(C(=O)COc1ccccc1C(N)=O)CC21CCN(C)CC1,"inconclusive: 2 µM [inhibitor, partial curve, poor fit]",
COc1cccc(CNC(=O)c2cc(-c3ccncc3)cn2C)c1OC,"inconclusive: 20 µM [inhibitor, single point]",
Cc1cc(Cl)ccc1NS(=O)(=O)c1ccc2c(c1)CCN2S(C)(=O)=O,inactive,
Cc1ccc(-c2cc(N3CCC(CNC(=O)c4cc(C5CC5)[nH]n4)CC3)n[nH]2)cc1,"inconclusive: 5.01 µM [inhibitor, partial curve, poor fit]",
